Laboratory results as given in PubChem BioAssay AID652104 (National Center for Advancing Translational Sciences (NCATS), 2013).
Where “and” joins values, the source holds several entries; their conditions need not be identical. Equal values may be shown once. Out of some 410,000 compounds screened, about 7,200 (1.8%) were called active. Inconclusive results, whose numbers are uncertain, are shown with a selection of clear calls. The call rests on the fitted dose curve; in most records, active means well fitted activation curve with a large enough effect; inconclusive means small, poorly fitted or top-dose-only effect, or another doubt; inactive means no such curve, though single readings can be large or run the other way. Where the call is inconclusive, the potency comes from a doubtful curve fit. The source holds several records for some structures; these can differ, active in one and inactive in another.

Assay: qHTS of TDP-43 Inhibitors; further: nearly all actives have a fitted effect of over 50% in size; on growth rescue (activation): % of control where 0% means no effect
Conditions: TDP-43 expressing yeast growth rescue, BacTiter-Glo, 24 h; growth rescue (activation): at 46.1 µM (top of the series) unless noted
Outline: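 Luminescence from BacTiter-Glo reports growth of TDP-43-expressing yeast after 24 hr at 30 deg C with compound. Cells were raffinose-pregrown to mid-log, then seeded in galactose medium at OD600=0.02.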
Potency means the concentration at half of the fitted maximal effect; tags describe the fitted curve by direction and shape.

Potency, inactive and 11.2 µM (active):
O=C(CCSCc1cccc(Cl)c1)NCCc1ccc(Cl)cc1

Potency, inactive:
O=C(CSCC(=O)N1CCN(c2ccccc2)CC1)Nc1nc(-c2ccc(Cl)s2)cs1
CCc1cccc(C)c1NS(=O)(=O)c1ccc2c(c1)CC(C)N2C(=O)C1CC1 (stereo unspecified)
O=C(C1CCCN(S(=O)(=O)c2cccc3nsnc23)C1)N1CCN(c2cccc(Cl)c2)CC1 (stereo unspecified)
COCc1cc(C)nc(SCC(=O)Oc2ccccc2)c1C#N
Cc1ccc(C)c(NC(=O)C2CCN(S(=O)(=O)c3ccc4c(c3)NC(=O)CO4)CC2)c1
COc1ccc(-c2csc3ncnc(N4CCN(S(=O)(=O)c5ccc(Cl)s5)CC4)c23)cc1
COC(=O)NC(=S)Nc1ccc(Oc2ccc(Cl)cc2)c(Cl)c1
COc1ccc(-n2c(SCC(=O)NCc3ccc(F)cc3)nc3c([nH]c4ccccc43)c2=O)cc1
Cc1cc2cc(C(c3nnnn3Cc3ccco3)N3CCc4ccccc4C3)c(=O)[nH]c2cc1C (stereo unspecified)
Cc1ccc(CNC(=O)CSc2nc3ccccc3nc2Cc2ccc(C)cc2)cc1
COc1ccc(CCNC(=O)c2cc(=O)c3cc(C)c(C)cc3o2)cc1OC

Potency, inconclusive:
O=S(=O)(Nc1ncnc2sc3c(c12)CCC3)c1ccc(Cl)s1 28.2 µM [activator, single point]
COC(=O)[C@@]12CCCN1[C@H](c1ccc(-c3ccc(OC)cc3)c(OC)c1)[C@@H]1C(=O)N(C)C(=O)[C@@H]12 35.5 µM [activator, partial curve]
CCOc1ccc(OCc2ccc(C(=O)N(C)c3ccccc3)o2)cc1 7.94 µM [activator, single point]
CC(N=c1ccccn1C(=O)Nc1cccc(C(F)(F)F)c1)c1ccco1 (stereo unspecified) 25.1 µM [activator, single point]
O=C(Nc1ccccc1F)C1(c2ccccc2)CC1(Cl)Cl (stereo unspecified) 7.08 µM [activator, full curve]
Cc1c(NC(=O)/C(C#N)=C/c2ccc(-c3cccc(Cl)c3)o2)c(=O)n(-c2ccccc2)n1C 35.5 µM [activator, single point]
Cc1ccc2c(CC(=O)OC3CCOC3=O)coc2c1 (stereo unspecified) 12.6 µM [activator, partial curve]
CCN(CC)c1nn2c(=O)c(C(=O)NCCc3cccc(C)c3)cnc2s1 12.6 µM [activator, partial curve]
CCOc1cccc(C(=O)Nc2ccc3c(c2)OCCO3)c1 10 µM [activator, partial curve]
O=c1cc(-c2ccccc2)n(S(=O)(=O)c2ccc3ccccc3c2)o1 15.8 µM [activator, single point]
Cc1cccc(-c2ccc3[nH]c4c(c3c2)CCN2C[C@@H]([C@H](C)O)[C@@H](N(C)C(=O)NC3CCCCC3)C[C@@H]42)c1 35.5 µM [activator, single point]
O=S(=O)(Nc1ccc2c(c1)OCCO2)c1ccc(Br)s1 12.6 µM [activator, single point]
N/C(=N\OS(=O)(=O)c1ccc2ccccc2c1)c1ccncc1 35.5 µM [activator, single point]
CCc1sc(C(=O)NC(C)C2CCCO2)cc1Br (stereo unspecified) 35.5 µM [activator, single point]
COc1ccc(NC(=O)c2cnc(N3CCCC3)nc2)cc1OC 14.1 µM [activator, partial curve]
CCCC1=Nc2cc(C(=O)N3CCC(C(=O)OCC)CC3)ccc2Sc2ccccc21 31.6 µM [activator, single point]
Cc1ccc(C)c(Cn2cnc3c(cnn3C(C)(C)C)c2=O)c1 11.2 µM [activator, partial curve]
O=C(NCC1CC1)C1Cc2c(-c3ccc(Cl)cc3)ccnc2O1 (stereo unspecified) 35.5 µM [activator, single point]
COc1ccc(-c2nc3ccccc3nc2-c2ccccc2)cc1OC 15.8 µM [activator, single point]
Cc1csc2nc(COC(=O)c3ccc(NC(=O)C(C)Oc4ccccc4)cc3)cc(=O)n12 (stereo unspecified) 17.8 µM [activator, single point]
CC1(C)Cc2c(c(N3CCOCC3)nc3sc(-c4ccc(C(=O)O)o4)c(N)c23)CO1 35.5 µM [activator, partial curve]
O=c1[nH]c(=S)[nH]c2c1C(c1ccc(F)cc1)OC(CCc1ccccc1)C2 (stereo unspecified) 7.08 µM [activator, full curve, poor fit]
CC1=CC(=O)CC2C1(C)CCC(C)C2(C)CCC(C)CC(=O)O (stereo unspecified) 35.5 µM [activator, single point]
CCCOC(=O)c1cc(-c2ccc(/C=C3/C(=O)N(C)C(=O)C(C#N)=C3C)o2)ccc1Cl 10 µM [activator, partial curve]
O=C(NC1CCCCC1)C1c2ccccc2OCC(=O)N1Cc1ccco1 (stereo unspecified) 15.8 µM [activator, single point]
CCc1ccc(N(CC)C(=O)c2ccc3c(Cl)c4c(nc3c2)CCC4)cc1 31.6 µM [activator, single point]
CC(=O)c1ccc2c(c1)OCCOCCOc1ccccc1OCCOCCO2 12.6 µM [activator, single point]
C=CCOc1c(Br)cc(/C=N/NC(N)=O)cc1OC 35.5 µM [activator, partial curve]
Cn1c(C(O)c2ccc(Cl)cc2)nc(Cl)c1Cl (stereo unspecified) 20 µM [activator, single point]
COc1ccc(S(=O)(=O)NCC(c2ccco2)S(=O)(=O)c2cccs2)cc1F (stereo unspecified) 1.41 µM [activator, partial curve]
CCCCc1ccc(NS(=O)(=O)c2c(C)n(C)c(=O)n(C)c2=O)cc1 17.8 µM [activator, partial curve]
Cc1ccccc1C(=O)N(C)[C@H]1C[C@H]2c3[nH]c4ccccc4c3CCN2C(=O)[C@H]1[C@H](C)O 12.6 µM [activator, partial curve]
Cc1cc(NC(=O)c2ccc([N+](=O)[O-])cc2)no1 0.891 µM [activator, partial curve]
CC1Oc2ccc(C#N)cc2N(Cc2ccc(F)cc2)C1=O (stereo unspecified) 35.5 µM [activator, single point]
CCc1ccc(C(=O)CC2(O)C(=O)N(CCc3ccccc3)c3ccc(Cl)cc32)cc1 (stereo unspecified) 25.1 µM [activator, single point]
c1ccc(-c2nc3cnccn3c2Nc2ccc3c(c2)OCCO3)cc1 31.6 µM [activator, single point]
Cc1ccc(C(=O)CCC(=O)OCC(=O)Nc2nnc(-c3ccccc3)o2)cc1 2.51 µM [activator, full curve, poor fit]
CNC(=O)C1CCC(Cn2c(=O)c3sccc3n(CC(=O)N3CCC(C)CC3)c2=O)CC1 (stereo unspecified) 35.5 µM [activator, partial curve, poor fit]
Cc1cccc(/C=N/NC(=O)CNc2cccc3ccccc23)n1 0.501 µM [activator, full curve, poor fit]
Cn1c(=O)c(/C=C/c2ccc(F)cc2)nc2ccccc21 8.91 µM [activator, partial curve]
COC(=O)[C@@]1(Cc2ccc(OC)cc2)[C@H]2c3cc(C(=O)N4CCCC4)n(Cc4ccccc4)c3C[C@H]2CN1C(=O)c1ccccc1 11.2 µM [activator, partial curve, poor fit]
Cc1onc(-c2ccccc2Cl)c1C(=O)c1ccccc1 11.2 µM [activator, partial curve]
CN(C)/C=C/C(=O)c1ccc(C(F)(F)F)cc1F 35.5 µM [activator, single point]
CC(=O)c1cccc(NC(=O)COC(=O)Cn2cnc3ccccc32)c1 0.501 µM [activator, full curve, poor fit]

Potency, active:
COc1ccc(-n2ncc3c(N4CCC(C)CC4)ncnc32)cc1 14.1 µM
CC(C)c1ccc2oc(-c3cc(N)ccc3O)nc2c1 20 µM
CCN=c1scc(-c2ccco2)n1/N=C/c1ccc(O)cc1 17.8 µM
CCOC(=O)c1cc(-c2ccc(C)cc2)n(CCC(=O)NC(C)CC)c1C (stereo unspecified) 14.1 µM
O=C(COC(=O)/C=C/c1cccc(Cl)c1)NC1CCCC1 12.6 µM
O=C(OCC(=O)N1CCc2ccccc21)c1c2c(nc3ccccc13)CCCCC2 22.4 µM
COc1ccc(-c2nc(CSCC(=O)NCc3ccccc3Cl)c(C)o2)cc1OC 25.1 µM

Growth rescue (activation), inactive:
CN1C(=S)N(c2cccnc2)C(=O)/C1=C\c1ccc(N(C)C)cc1 -9.92% [at 9.22 µM]

Growth rescue (activation), inconclusive:
c1csc(C(c2nnnn2C2CCCCC2)N2CCN(c3nc4ccccc4s3)CC2)c1 (stereo unspecified) 108% [activator]
CCN(CCO)C1CC(=O)N(c2ccccc2C)C1=O (stereo unspecified) -90.3% [activator]
